From the supplement of paper PMC12217912
The other results are listed elsewhere or left out. Sequences were assembled here from the parent chain. Values near 0.05 are background.

B1: TEV protease; numbered along this chain (parent)
chain: MGESLFKGPRDYNPISSSICHLTNESDGHTTSLYGIGFGPFIITNKHLFRRNNGTLVVQSLHGVFKVKDTTTLQQHLVDGRDMIIIRMPKDFPPFPQKLKFREPQREERICLVTTNFQTKSMSSMVSDTSCTFPSGDGIFWKHWIQTKDGQCGSPLVSTRDGFIVGIHSASNFTNTNNYFTSVPKNFMELLTNQEAQQWVSGWRLNADSVLWGGHKVFMVKPEEPFQPVKEATQL

Variants of: B1
Assay: raw area under fraction-flipped curve 0-4 h after induction (AUC4h, not background-subtracted), DNA-recorder readout of cleavage of the substrate (dimensionless); higher = more cleavage of the substrate by the protease variant
Conditions: temperature: 34 °C; time window: 0-4 h after rhamnose induction
Experimental: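 In vivo DNA recorder in E. coli TOP10(DE3) ΔrhaA at 34 °C. Each TEVp single-site mutant (parent TEVp 0) is paired with a single-site variant of the 7-mer TEVs (canonical ENLYFQ|S). The substrate sits between flexible linkers in a Bxb1-sfGFP-TEVs-SsrA fusion, so cleavage stabilises Bxb1 and speeds flipping of a recombination array, read by NGS. The value is the raw area under the fraction-flipped curve over 0-4 h after rhamnose induction (AUC4h), with ≥20 reads per time point. It is not background-subtracted; inactive controls average about 0.047.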
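Note: Bxb1 expression induced with 0.2% (w/v) L-rhamnose at OD600 near 0.5, cultures sampled hourly, flipped fraction per protease–substrate barcode pair counted by paired-end Illumina sequencing.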

Row | Variant | area with substrate ENLYFQA | area with substrate ENLYFQC | area with substrate ENLYFQG | area with substrate ENLYFQK | area with substrate ENLYFQM | area with substrate ENLYFQN | area with substrate ENLYFQP | area with substrate ENLYFQS | area with substrate ENLYFQT | area with substrate ENLYFQV | area with substrate ENLYFQW | area with substrate ENLYFQY | area with substrate ENLYFQD | area with substrate ENLYFQI | area with substrate ENLYFQL | area with substrate ENLYFQR | area with substrate ENLYFQH | area with substrate ENLYFQF | area with substrate ENLYFQE | area with substrate ENLYFQQ
1 | Q146P | 0.0943 | 0.109 | 0.0935 | 0.0658 | 0.0816 | 0.0927 | 0.0646 | 0.103 | 0.0725 | 0.0529 | 0.082 | 0.0984 | – | – | – | – | – | – | – | –
2 | Q146V | 0.0546 | 0.122 | 0.11 | 0.105 | – | 0.0782 | – | 0.106 | 0.064 | – | – | – | 0.076 | 0.051 | 0.0474 | 0.0464 | – | – | – | –
3 | T147M | 0.0855 | 0.0938 | 0.0956 | 0.0583 | – | 0.0691 | – | 0.0859 | 0.0818 | 0.0591 | – | 0.0658 | – | – | – | 0.0642 | 0.0067 | – | – | –
4 | K148C | 0.08 | 0.109 | 0.0957 | 0.0553 | 0.104 | 0.0601 | 0.0707 | 0.0962 | 0.0383 | 0.0773 | 0.0468 | 0.141 | – | – | 0.063 | 0.0541 | 0.0732 | – | – | –
5 | D149T | 0.0887 | 0.0944 | – | 0.0516 | 0.0679 | 0.0735 | 0.0623 | 0.0878 | 0.0681 | 0.0649 | 0.0606 | – | – | 0.0518 | 0.0543 | 0.0603 | – | 0.0782 | – | –
6 | Q151N | 0.0691 | 0.0758 | 0.0923 | 0.0466 | 0.0726 | 0.0644 | 0.0575 | 0.0757 | 0.0643 | 0.0557 | 0.0616 | 0.0647 | 0.0637 | – | – | 0.0584 | 0.0715 | – | – | –
7 | P155I | 0.0768 | 0.0717 | 0.076 | – | 0.0353 | – | 0.0707 | 0.0658 | 0.059 | 0.0303 | 0.068 | – | 0.0591 | – | 0.0268 | – | – | 0.0464 | 0.0633 | –
8 | L156R | 0.0455 | 0.0588 | 0.0415 | 0.0447 | – | 0.0514 | 0.0567 | 0.0491 | 0.0448 | – | – | 0.0451 | – | 0.023 | 0.033 | – | – | – | – | –
9 | S158N | 0.071 | 0.0819 | – | – | 0.0602 | 0.0639 | 0.0459 | 0.0802 | 0.0959 | 0.0502 | 0.0493 | – | 0.0603 | 0.0771 | 0.0548 | – | – | 0.0582 | – | –
10 | S158Y | 0.066 | 0.0528 | – | 0.0569 | 0.04 | 0.0498 | – | 0.0536 | 0.0454 | – | 0.0479 | 0.0343 | 0.0582 | 0.0656 | 0.0506 | 0.0416 | 0.0433 | – | – | –
11 | T159I | 0.0775 | – | 0.0758 | – | 0.0838 | 0.058 | 0.0532 | 0.109 | 0.0782 | – | – | – | – | – | – | 0.0579 | – | – | – | –
12 | G162D | 0.0908 | – | – | 0.0947 | 0.0877 | 0.0803 | – | 0.0967 | – | 0.0567 | 0.0723 | – | 0.0738 | 0.0654 | 0.0516 | 0.0481 | 0.0768 | – | – | 0.0864
13 | G162F | 0.0781 | 0.0982 | 0.0915 | 0.0602 | 0.0746 | 0.0711 | 0.0472 | 0.0842 | 0.0621 | 0.0658 | 0.0291 | 0.093 | 0.0608 | 0.042 | 0.0585 | 0.0601 | 0.0799 | 0.0562 | – | –
